Laboratory results: paper PMC7126937 (Bioorganic & Medicinal Chemistry, 2014)

Tested on: MDCK cells
Conditions: dog

NC12CC3CC(CC(C3)C1)C2 [Amantadine, 1-aminoadamantane, reference compound]
CTD50 (cytotoxic concentration; the concentration resulting in death of 50% of cells): 284.1 ± 21.4 µM

CC1(C)C2CC[C@@]1(C)C(=O)C2 [Compound 1, (1R)-(+)-camphor, reference compound]
CTD50 (cytotoxic concentration; the concentration resulting in death of 50% of cells): 3289.5 ± 216.0 µM

CC(N)C12CC3CC(CC(C3)C1)C2.Cl (stereo not drawn) [Rimantadine, α-methyl-1-adamantylamine hydrochloride, reference compound]
CTD50 (cytotoxic concentration; the concentration resulting in death of 50% of cells): 335.2 ± 26.8 µM
